For this experiment, the target named is taxol-stabilized microtubules (bovine brain tubulin) (bovine, UniProt Q6B856). The experiment can be described thus: single molecule TIRF microscopy (residence time on microtubules); fluorescent complexes in solution on taxol-stabilized microtubules; standard BRB80 buffer; mean residence time, error by bootstrapping. The conditions noted are these: both partners purified.

B1: Broccoli-GFP (shortened dimeric construct, Ndc80 […] / Nuf2 […] with GFP fused C-terminally to Nuf2) (complex)
chain 1: [about 550 residues left out]
chain 2: MSRNQDVFPILDLQELVICLQSCDFALATQENISRPTSDYMVTLYKQIIENFMGISVESLLNSSNQETGDGHLQEENENIYLDTLNVLVLNKICFKFFENIGVQDFNMTDLYKPEAQRTQRLLSAVVNYARFREERMFDCNSFILQMESLLGQLRSKFDDYNLIQQQLKQYEDVDGDNIPDEQELQKLEEQNKELEIQLKKLTKIQETLSIDYNDYKISKQSIFKDLEALSFQIVELESNRDKLIKISNTDMEELSEGIKELNDLLIQRKKTLDDLTAQQKNLQDTVTTFETIISELYDVLRIISSEVQESNRTETELVGLKQNLINNKLKLMNVLETG
notes: Ndc80, S. cerevisiae, […] (C-terminus removed); Nuf2, S. cerevisiae, […] (C-terminus removed); also called […]/Nuf2-GFP; Ndc80/Nuf2; source: E. coli BL21, purified (Ni-charged IMAC resin, size exclusion chromatography); not shown: GFP, C-terminal, kept
As to B1, the “mean residence time on microtubules” value turned out to be 5.6 s.

The values above are taken from paper PMC6516834, “Tight bending of the Ndc80 complex provides intrinsic regulation of its binding to microtubules” (eLife, 2019).
